# Measured values published in the supplement of paper PMC8728848.
# The other results are listed elsewhere or left out.
# Experiments:
# Assay in all cases: glycan array binding signal (z-score within array); higher = stronger binding
# Conditions in all cases: glycan notation: IUPAC condensed, linker removed
# [1] = molecular target: Glc(a1-6)Glc(a1-6)Glc
# How it was run: (§1)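 Glycan array binding is given as a within-array Z-score, which can be read as non-binding when negative. The arrays, 3228 of them, came from the Consortium for Functional Glycomics database and were retained only where the protein sequence was available. Z-scores were averaged across arrays of the same protein sequence at different concentrations or buffers and across linkers.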
# [2] = molecular target: Glc(b1-4)Glc
# How it was run: as §1
# [3] = molecular target: Glc(b1-6)Glc
# How it was run: as §1
# [4] = molecular target: GlcA(b1-3)Gal
# How it was run: as §1
# [5] = molecular target: GlcA(b1-3)GlcNAc
# How it was run: as §1
# [6] = molecular target: GlcA(b1-6)Gal
# How it was run: as §1
# [7] = molecular target: GlcNAc(a1-3)Gal(b1-4)GlcNAc
# How it was run: as §1
# [8] = molecular target: GlcNAc(a1-4)Gal(b1-3)GlcNAc
# How it was run: as §1
# [9] = molecular target: GlcNAc(a1-4)Gal(b1-4)GalNAc
# How it was run: as §1
# [10] = molecular target: GlcNAc(a1-4)Gal(b1-4)GlcNAc
# How it was run: as §1
# [11] = molecular target: GlcNAc(a1-4)Gal(b1-4)GlcNAc(b1-3)Gal(b1-4)Glc
# How it was run: as §1
# [12] = molecular target: GlcNAc(a1-4)Gal(b1-4)GlcNAc(b1-3)Gal(b1-4)GlcNAc
# How it was run: as §1
# [13] = molecular target: GlcNAc(a1-4)Gal(b1-4)GlcNAc(b1-3)Gal(b1-4)GlcNAc(b1-3)Gal(b1-4)GlcNAc
# How it was run: as §1
# [14] = molecular target: GlcNAc(a1-4)Gal(b1-4)GlcNAc(b1-3)Gal(b1-4)[Fuc(a1-3)]GlcNAc(b1-3)Gal(b1-4)[Fuc(a1-3)]GlcNAc
# How it was run: as §1
# [15] = molecular target: GlcNAc(a1-6)Gal(b1-4)GlcNAc
# How it was run: as §1
# [16] = molecular target: GlcNAc(b1-2)Gal(b1-3)GalNAc
# How it was run: as §1
# [17] = molecular target: GlcNAc(b1-2)Man(a1-3)[GlcNAc(b1-2)Man(a1-6)]Man(b1-4)GlcNAc(b1-4)GlcNAc
# How it was run: as §1
# [18] = molecular target: GlcNAc(b1-2)Man(a1-3)[GlcNAc(b1-2)Man(a1-6)]Man(b1-4)GlcNAc(b1-4)[Fuc(a1-6)]GlcNAc
# How it was run: as §1
# [19] = molecular target: GlcNAc(b1-3)Gal
# How it was run: as §1
# [20] = molecular target: GlcNAc(b1-3)Gal(b1-3)GalNAc
# How it was run: as §1
# [21] = molecular target: GlcNAc(b1-3)Gal(b1-4)Glc
# How it was run: as §1
# [22] = molecular target: GlcNAc(b1-3)Gal(b1-4)GlcNAc
# How it was run: as §1
# [23] = molecular target: GlcNAc(b1-3)Gal(b1-4)GlcNAc(b1-3)Gal(b1-4)GlcNAc
# How it was run: as §1
# [24] = molecular target: GlcNAc(b1-3)GalNAc
# How it was run: as §1
# [25] = molecular target: GlcNAc(b1-3)Man
# How it was run: as §1
# [26] = molecular target: GlcNAc(b1-3)[GlcNAc(b1-4)][GlcNAc(b1-6)]GlcNAc
# How it was run: as §1
# [27] = molecular target: GlcNAc(b1-3)[GlcNAc(b1-6)]Gal(b1-4)GlcNAc
# How it was run: as §1
# [28] = molecular target: GlcNAc(b1-3)[GlcNAc(b1-6)]GalNAc
# How it was run: as §1
# [29] = molecular target: GlcNAc(b1-4)Gal(b1-4)GlcNAc
# How it was run: as §1
# [30] = molecular target: GlcNAc(b1-4)GlcNAc
# How it was run: as §1
# [31] = molecular target: GlcNAc(b1-4)GlcNAc(b1-4)GlcNAc
# How it was run: as §1
# [32] = molecular target: GlcNAc(b1-4)GlcNAc(b1-4)GlcNAc(b1-4)GlcNAc(b1-4)GlcNAc
# How it was run: as §1
# [33] = molecular target: GlcNAc(b1-4)GlcNAc(b1-4)GlcNAc(b1-4)GlcNAc(b1-4)GlcNAc(b1-4)GlcNAc
# How it was run: as §1
# [34] = molecular target: GlcNAc(b1-4)[GlcNAc(b1-6)]GalNAc
# How it was run: as §1
# [35] = molecular target: GlcNAc(b1-6)Gal(b1-4)GlcNAc
# How it was run: as §1
# [36] = molecular target: GlcNAc(b1-6)GalNAc
# How it was run: as §1
# [37] = molecular target: GlcNAc3Prop(b1-4)GlcNAc
# How it was run: as §1
# [38] = molecular target: GlcNAc6S(b1-3)Gal(b1-4)GlcNAc
# How it was run: as §1
# [39] = molecular target: Kdn(a2-3)Gal(b1-3)GalNAc
# How it was run: as §1
# [40] = molecular target: Kdn(a2-3)Gal(b1-3)GlcNAc
# How it was run: as §1
# [41] = molecular target: Kdn(a2-3)Gal(b1-4)Glc
# How it was run: as §1
# [42] = molecular target: Kdn(a2-3)Gal(b1-4)GlcNAc
# How it was run: as §1
# [43] = molecular target: Kdn(a2-3)Gal(b1-4)[Fuc(a1-3)]GlcNAc
# How it was run: as §1
# [44] = molecular target: Kdn(a2-6)Gal(b1-4)GlcNAc
# How it was run: as §1
# [45] = molecular target: Man(a1-2)Man(a1-2)Man(a1-3)Man
# How it was run: as §1
# [46] = molecular target: Man(a1-2)Man(a1-2)Man(a1-6)[Man(a1-3)]Man
# How it was run: as §1
# [47] = molecular target: Man(a1-2)Man(a1-3)Man
# How it was run: as §1
# [48] = molecular target: Man(a1-2)Man(a1-3)[Man(a1-2)Man(a1-6)]Man
# How it was run: as §1
# [49] = molecular target: Man(a1-2)Man(a1-3)[Man(a1-2)Man(a1-6)]Man(a1-6)[Man(a1-2)Man(a1-2)Man(a1-3)]Man
# How it was run: as §1
# [50] = molecular target: Man(a1-2)Man(a1-3)[Man(a1-2)Man(a1-6)]Man(a1-6)[Man(a1-2)Man(a1-2)Man(a1-3)]Man(b1-4)GlcNAc(b1-4)GlcNAc
# How it was run: as §1
# [51] = molecular target: Man(a1-2)Man(a1-3)[Man(a1-6)]Man(a1-6)[Man(a1-2)Man(a1-3)]Man(b1-4)GlcNAc(b1-4)GlcNAc
# How it was run: as §1
# [52] = molecular target: Man(a1-2)Man(a1-6)[Man(a1-3)]Man(a1-6)[Man(a1-2)Man(a1-2)Man(a1-3)]Man
# How it was run: as §1
# [53] = molecular target: Man(a1-2)Man(a1-6)[Man(a1-3)]Man(a1-6)[Man(a1-2)Man(a1-2)Man(a1-3)]Man(b1-4)GlcNAc(b1-4)GlcNAc
# How it was run: as §1
# [54] = molecular target: Man(a1-3)[Man(a1-6)]Man
# How it was run: as §1
# [55] = molecular target: Man(a1-3)[Man(a1-6)]Man(a1-6)[Man(a1-2)Man(a1-3)]Man(b1-4)GlcNAc(b1-4)GlcNAc
# How it was run: as §1
# [56] = molecular target: Man(a1-3)[Man(a1-6)]Man(a1-6)[Man(a1-3)]Man
# How it was run: as §1
# [57] = molecular target: Man(a1-3)[Man(a1-6)]Man(a1-6)[Man(a1-3)]Man(b1-4)GlcNAc(b1-4)GlcNAc
# How it was run: as §1
# [58] = molecular target: Man(a1-3)[Man(a1-6)]Man(b1-4)GlcNAc(b1-4)GlcNAc
# How it was run: as §1
# [59] = molecular target: Man(a1-6)Man
# How it was run: as §1
# [60] = molecular target: Man(b1-4)GlcNAc
# How it was run: as §1
binder,measurement,setting,value
"Neuropilin-1 (Rattus norvegicus), Q9QWJ9 (protein) MERGLPLLCATLALALALAGAFRSDKCGGTIKIENPGYLTSPGYPHSYHPSEKCEWLIQAPEPYQRIMINFNPHFDLEDRDCKYDYVEVIDGENEGGRLWGKFCGKIAPSPVVSSGPFLFIKFVSDYETHGAGFSIRYEIFKRGPECSQNYTAPTGVIKSPGFPEKYPNSLECTYIIFAPKMSEIILEFESFDLEQDSNPPGGVFCRYDRLEIWDGFPEVGPHIGRYCGQKTPGRIRSSSGILSMVFYTDSAIAKEGFSANYSVLQSSISEDFKCMEALGMESGEIHSDQITASSQYGTNWSVERSRLNYPENGWTPGEDSYREWIQVDLGLLRFVTAVGTQGAISKETKKKYYVKTYRVDISSNGEDWITLKEGNKAIIFQGNTNPTDVVFGVFPKPLITRFVRIKPASWETGISMRFEVYGCKITDYPCSGMLGMVSGLISDSQITASNQGDRNWMPENIRLVTSRTGWALPPSPHPYINEWLQVDLGDEKIVRGVIIQGGKHRENKVFMRKFKIAYSNNGSDWKMIMDDSKRKAKSFEGNNNYDTPELRAFTPLSTRFIRIYPERATHSGLGLRMELLGCEVEVPTAGPTTPNGNPVDECDDDQANCHSGTGDDFQLTGGTTVLATEKPTIIDSTIQSEFPTYGFNCEFGWGSHKTFCHWEHDSHAQLRWRVLTSKTGPIQDHTGDGNFIYSQADENQKGKVARLVSPVVYSQSSAHCMTFWYHMSGSHVGTLRVKLHYQKPEEYDQLVWMVVGHQGDHWKEGRVLLHKSLKLYQVIFEGEIGKGNLGGIAVDDISINNHIPQEDCAKPTDLDKKNTEIKIDETGSTPGYEEGKGDKNISRKPGNVLKTLDPILITIIAMSALGVLLGAVCGVVLYCACWHNGMSERNLSALENYNFELVDGVKLKKDKLNPQSNYSEA",glycan array binding signal (z-score),[1],-0.431
same,glycan array binding signal (z-score),[2],-0.28
same,glycan array binding signal (z-score),[3],-0.322
same,glycan array binding signal (z-score),[4],-0.305
same,glycan array binding signal (z-score),[5],-0.308
same,glycan array binding signal (z-score),[6],-0.148
same,glycan array binding signal (z-score),[7],-0.264
same,glycan array binding signal (z-score),[8],-0.133
same,glycan array binding signal (z-score),[9],0.754
same,glycan array binding signal (z-score),[10],-0.307
same,glycan array binding signal (z-score),[11],-0.275
same,glycan array binding signal (z-score),[12],-0.154
same,glycan array binding signal (z-score),[13],-0.167
same,glycan array binding signal (z-score),[14],2.61
same,glycan array binding signal (z-score),[15],-0.181
same,glycan array binding signal (z-score),[16],-0.349
same,glycan array binding signal (z-score),[17],-0.236
same,glycan array binding signal (z-score),[18],-0.248
same,glycan array binding signal (z-score),[19],-0.372
same,glycan array binding signal (z-score),[20],0.03
same,glycan array binding signal (z-score),[21],-0.232
same,glycan array binding signal (z-score),[22],-0.32
same,glycan array binding signal (z-score),[23],-0.302
same,glycan array binding signal (z-score),[24],-0.076
same,glycan array binding signal (z-score),[25],-0.225
same,glycan array binding signal (z-score),[26],-0.236
same,glycan array binding signal (z-score),[27],-0.354
same,glycan array binding signal (z-score),[28],-0.27
same,glycan array binding signal (z-score),[29],-0.238
same,glycan array binding signal (z-score),[30],-0.282
same,glycan array binding signal (z-score),[31],-0.307
same,glycan array binding signal (z-score),[32],-0.36
same,glycan array binding signal (z-score),[33],-0.306
same,glycan array binding signal (z-score),[34],-0.203
same,glycan array binding signal (z-score),[35],-0.321
same,glycan array binding signal (z-score),[36],-0.324
same,glycan array binding signal (z-score),[37],-0.299
same,glycan array binding signal (z-score),[38],-0.32
same,glycan array binding signal (z-score),[39],-0.237
same,glycan array binding signal (z-score),[40],-0.243
same,glycan array binding signal (z-score),[41],-0.151
same,glycan array binding signal (z-score),[42],-0.231
same,glycan array binding signal (z-score),[43],1.12
same,glycan array binding signal (z-score),[44],-0.209
same,glycan array binding signal (z-score),[45],-0.155
same,glycan array binding signal (z-score),[46],-0.237
same,glycan array binding signal (z-score),[47],-0.171
same,glycan array binding signal (z-score),[48],-0.239
same,glycan array binding signal (z-score),[49],-0.339
same,glycan array binding signal (z-score),[50],-0.203
same,glycan array binding signal (z-score),[51],-0.217
same,glycan array binding signal (z-score),[52],-0.303
same,glycan array binding signal (z-score),[53],-0.184
same,glycan array binding signal (z-score),[54],-0.363
same,glycan array binding signal (z-score),[55],-0.319
same,glycan array binding signal (z-score),[56],-0.335
same,glycan array binding signal (z-score),[57],-0.25
same,glycan array binding signal (z-score),[58],-0.24
same,glycan array binding signal (z-score),[59],-0.238
same,glycan array binding signal (z-score),[60],-0.304
